Switch fluorescence ratio data for 120 sequences are collected here from the supplement of paper PMC10126150.

Values marked as one replicate rest on one cluster of the flow cell; about a third of the high ones do not repeat.

The test system of this series is ATP. The series is described as follows: switch fluorescence ratio, 500 uM ATP over buffer (Cy3 cluster intensity, sum of 5 cycles each) (fold (ratio)); higher = stronger signal-on switching upon ATP binding; sequences stand for … in TCGTCGGCAGCGTCAGATGTGTATAAGAGACAGTTTTTTTTTTTTTTTTTTTTTTTTT…TC. Particulars: aptamer strand: ATP DNA aptamer (quencher-CACCTGGGGGAGTATTGCGGAGGAAGG + anchor), 100 nM annealed; ATP concentration: 500 uM; one replicate. A digest of the protocol: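 After annealing to 100 nM quencher-labelled ATP aptamer, Cy3-labelled switching-strand clusters on a modified Illumina MiSeq flow-cell were imaged in selection buffer. A second image followed after 15 min with 500 uM ATP at 22 °C, and five such buffer/ATP cycles were done, each separated by NaOH stripping and re-annealing. The fluorescence ratio, averaged per switch-domain sequence, is summed target-cycle over summed buffer-cycle Cy3 intensity per cluster, with clusters outside 100-1000 RFU excluded.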
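Further: ATP exposure 15 min at 22 °C before imaging.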

Turning to CCATGACACC, the switch fluorescence ratio came out at 1.06. As for AGGTTAGATT, the figure is 1.01. As for CATCCTTGCC, the figure is 1.21. As for CCCCGCGCTT, the figure is 3.99. On to TGGCCCTCCA, for which the switch fluorescence ratio worked out at 1.01. As for ACTTCACGTT, the figure is 1.23. As for GAATGCCAGG, the figure is 1.05; as for TAGAGCTCGG, 0.979; as for TTCGGGACAG, 0.998.

On to GTAGGCGAGG, for which the switch fluorescence ratio stood at 1.03. As for CAGCGCCCGT, the figure is 0.963. Next, GTGGTCTGGT: 0.952; GAAGTATAGG: 0.994. Turning to TCCGCCATTC, the switch fluorescence ratio came out at 1.95. As for GCTATCTCGC, the figure is 1.05; as for CTGGTTTCGC, 1.03; as for TGTACGAACA, 1.29. Next, ATAAGTCTGC: 0.964. As for TGTAATCCG, the figure is 1; as for CTGGGCAAGC, 1.12; as for CATGCGGGCA, 0.972. As for TATTTTTTAA, the switch fluorescence ratio was determined as 0.958. Next, AGTCACGGGG: 1.02; ACCGCTTGAG: 1.03; GCGGACCCTT: 1.04.

As to CGAAAGTTGT, the switch fluorescence ratio was determined as 0.996. For CGTTGGGATA, the switch fluorescence ratio worked out at 0.95. As for CTCACGGTGA, the figure is 1.13; as for TAGAGGCACT, 1.01.

As to TAGCACATG, the switch fluorescence ratio is 1.02.

Take GCGCAGATCC: the switch fluorescence ratio came out at 1.3. As for CTAGAAATGT, the figure is 1.02; as for TCTGTTGAGC, 0.982; as for CCTTAGTCGC, 1.12. Next, CTGCCTTATA: 1.01; GGAGCGGATA: 1.13; TCCTTAAGCG: 1.2. For the sequence CTACTTGTA, the switch fluorescence ratio came to 1.01. As for TAAGTCTATG, the figure is 0.98; as for ATAAACAGA, 0.98; as for TGCTATCCAA, 1.01. As for CAGATTAGAC, the figure is 1.04; as for GTACCAGGTA, 1.04; as for AGGTCATGGG, 0.974. Next, CGTTTATACA: 1.04; CGGCGACGCG: 1.02; AGTCGATCGC: 1.05. GAAGCCGTAT: the switch fluorescence ratio is 1.02. Next, GCTAAAAGAA: 1.02; TGCAATTAAT: 1.13. Next, GTTAGATGG: 1.06; TTGCCCATTT: 1.03; GTAGGCACTC: 1.02.

AAGGAGGTC: the switch fluorescence ratio was determined as 1.03. As for CTGATACCGG, the figure is 0.95. For the sequence CATATTGGTG, the switch fluorescence ratio is 0.982. Take TGAATTGCGG: the switch fluorescence ratio is 1. As for GGTCGACCGC, the switch fluorescence ratio turned out to be 0.931.

Take AGTGGATTAT: the switch fluorescence ratio came out at 0.985.

As for TCAAGGTCGA, the switch fluorescence ratio is 1.04.

Regarding GCGCCGGCTT, the switch fluorescence ratio was found to be 1.04. As for GCATATTAGT, the figure is 0.977; as for AATTTGTTCA, 1.01. As to CCGTCTCCGT, the switch fluorescence ratio was 1.68. Consider ATAACGATGG, for which the switch fluorescence ratio was 1.04. Next, AGTTTGGAGT: 0.994; TCTATCCTAG: 0.961. Next, ATTTAGCTTT: 0.977. As for CGAGTATCGA, the figure is 0.975.

Turning to TTCCTAAGTC, the switch fluorescence ratio is 1.03.

For ATCGAGGAGC, the switch fluorescence ratio came out at 1. As for GTCGGAATCG, the figure is 1.04.

Turning to ACTGGTTGGC, the switch fluorescence ratio is 0.971. Next, TGCTGTTTCT: 0.961; ACCCAGTTGA: 1.26; TGGTGATTAA: 0.99.

As for CCATATCTGT, the switch fluorescence ratio turned out to be 1.01.

As to GTCAGGGGGC, the switch fluorescence ratio amounted to 1.11.

As for GTCGACACCT, the switch fluorescence ratio is 1.08. As for CTAATCATTT, the switch fluorescence ratio turned out to be 1.01.

Consider AAGCCATTAT, for which the switch fluorescence ratio was found to be 1.06. As for ATCCGGGGAC, the figure is 1.97; as for ATTAGTTGT, 0.98; as for ATAGGCAGTC, 0.957.

For the sequence GCCAAAAACG, the switch fluorescence ratio was 1.04. Next, TGTCACCCCC: 1.79; TATGTAGGT: 1.02. As for CTGTAGCGGC, the figure is 2.36; as for CCGTAGGCCC, 1.07. Next, TAAGGAAAAC: 1.05. Consider AGTGGTGCG, for which the switch fluorescence ratio was 1.03. Consider CTTCATGTTT, for which the switch fluorescence ratio was 0.981.

With TTGTGGGCT, the switch fluorescence ratio was determined as 0.926. As for AAGTACCCCC, the figure is 1.49; as for CGGAGGTAAT, 1.49. As for AATGCCGGTA, the figure is 0.996; as for AACGGAACGC, 1.1.

Consider TAATTCAGAA, for which the switch fluorescence ratio was 1.01. Next, GTGGTTCGCG: 0.976.

For CCACGGGTTC, the switch fluorescence ratio is 1.1. As for GCTGAAGGCA, the figure is 1.06. Next, GACAAGTTGC: 1.02; ACCGCATATG: 2.6; TCTATATG: 1.03. As for GTCGGCTAGT, the figure is 0.952.

As for GTCTTAGAGT, the switch fluorescence ratio was 0.985. As for TAATGTCTGC, the figure is 1.01; as for AGGCAATTGA, 0.963. Next, TGTTTTCTTG: 1; TTGACGAG: 1.02; CGTTTACCAT: 0.971. Next, CGAAATGAGG: 1.02; GGGGCGCTTT: 1; TACTAATGC: 1.01. For the sequence AGCTGAGGCA, the switch fluorescence ratio was found to be 0.992. Next, GCCGTAAGGG: 0.97. As for AACTCTTCAG, the figure is 0.97; as for GGCCTAAGAC, 0.996. Next, GTGAAATCGG: 1.04; ATGCGGGTTG: 1.04.
